This is an account of results in PMC5892938.

The other results are listed elsewhere or left out. At the low end of the ranking the order means little.

In the experiment the target is GST-SBP-SLBP (stem-loop binding protein) (UniProt Q14493). The experiment is described as follows: targeted RNA Bind-n-Seq.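 Note: DESeq read counts versus GST-SBP nonspecific binding control pulldown.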 The conditions noted are these: RBNS binding buffer: 25 mM Tris pH 7.5, 150 mM KCl, 3 mM MgCl2, 0.1% Tween, 0.5 mg/mL BSA, 1 mM DTT; 27 nM protein, 750 pM RNA pool; temperature not stated; high values mean tight binding.
For the sequence “GGUCACGUCUCAAUCAACUCAAUCCCAGGAGUUUUCUCCUGCAUACUCAACAGCUCGCAGUCAAG”, the binding signal (log2 fold change) is 0.144. The same measure for “GGUCACGUCUCAAUCAACUCAUCUUCAGGAGUUUACUCCUGUAUAUUCAACAGCUCGCAGUCAAG”: 0.171. Take “GGUCACGUCUCAAUCAACUCAACUCCCAGGGAAAUCCCUGGUUAACUCAACAGCUCGCAGUCAAG”: the binding signal (log2 fold change) worked out at 0.134. As for “GGUCACGUCUCAAUCAACUCUUUCCCAGGAGUUUACUCCUGCAAUUUCAACAGCUCGCAGUCAAG”, the figure is 0.127; as for “GGUCACGUCUCAAUCAACUCUAUCCCCAGGGAAAUCCCUGGUUAUUUCAACAGCUCGCAGUCAAG”, -0.0565; as for “GGUCACGUCUCAAUCAACUCUAUUCCAGGAGUUUCCUCCUGUUUUCUCAACAGCUCGCAGUCAAG”, 0.0762. As for “GGUCACGUCUCAAUCAACUCAACGCCAGGAGUUUCCUCCUGUUUUCUCAACAGCUCGCAGUCAAG”, the figure is 0.171; as for “GGUCACGUCUCAAUCAACUCAAUUUCAGGAGUUUGCUCCUGUUUUUUCAACAGCUCGCAGUCAAG”, 0.18. The same measure for “GGUCACGUCUCAAUCAACUCAGUCCCCAGGGAAACCCCUGGCAAAUUCAACAGCUCGCAGUCAAG”: 0.0713; for “GGUCACGUCUCAAUCAACUCAAUCCCAGGAGUUUUCUCCUGUAUUCUCAACAGCUCGCAGUCAAG”: -0.00559.

Regarding “GGUCACGUCUCAAUCAACUCUCUCGAGGGGGGGAAAACCCCUUUGCCCUCAAAAUCAACAGCUCGCAGUCAAG”, the binding signal (log2 fold change) is 0.354.

On to “GGUCACGUCUCAAUCAACUCAACUCCCAGGGAAAACCCUGGCUUACUCAACAGCUCGCAGUCAAG”, for which the binding signal (log2 fold change) came to 0.0456. Turning to “GGUCACGUCUCAAUCAACUCAUCCCCAGGAGUUUUCUCCUGUAUUCUCAACAGCUCGCAGUCAAG”, the binding signal (log2 fold change) was 0.115. Turning to “GGUCACGUCUCAAUCAACUCUUCCUCAGGAGUUUUCUCCUGCUUUUUCAACAGCUCGCAGUCAAG”, the binding signal (log2 fold change) came to 0.0635. As to “GGUCACGUCUCAAUCAACUCUAAAGAGGGGGGGAAAACCCCUUUGCCCUCCAUGUCAACAGCUCGCAGUCAAG”, the binding signal (log2 fold change) is -0.16. As for “GGUCACGUCUCAAUCAACUCUACUCCCAGGGAAAACCCUGGUAUAUUCAACAGCUCGCAGUCAAG”, the figure is -0.0733. The same measure for “GGUCACGUCUCAAUCAACUCUUCUUCAGGAGUUUACUCCUGCAUAUUCAACAGCUCGCAGUCAAG”: 0.184; for “GGUCACGUCUCAAUCAACUCACCCGAGGGGGGGAAAACCCCUUUACCCUCACAUUCAACAGCUCGCAGUCAAG”: -0.27. As for “GGUCACGUCUCAAUCAACUCUACUUCCAGGGAAAACCCUGGCAUAUUCAACAGCUCGCAGUCAAG”, the figure is 0.0931; as for “GGUCACGUCUCAAUCAACUCUAUCUCAGGAGUUUACUCCUGCAUUUUCAACAGCUCGCAGUCAAG”, -0.0648; as for “GGUCACGUCUCAAUCAACUCUCCAGAGGGGGGGAAAACCCCUUUACCCUCCAUCUCAACAGCUCGCAGUCAAG”, -0.112. In the case of “GGUCACGUCUCAAUCAACUCUAUAGAGGGGGGGAAAACCCCUUUACCCUCCAUUUCAACAGCUCGCAGUCAAG”, the binding signal (log2 fold change) was -0.257. The same measure for “GGUCACGUCUCAAUCAACUCAUUUUCAGGAGUUUUCUCCUGUUUAUUCAACAGCUCGCAGUCAAG”: 0.153; for “GGUCACGUCUCAAUCAACUCUUAAGAGGGGGGGAAAACCCCUUUACCCUCCAUGUCAACAGCUCGCAGUCAAG”: -0.347; for “GGUCACGUCUCAAUCAACUCCUUCGAGGGGGGGAAAACCCCUUUACCCUCAACUUCAACAGCUCGCAGUCAAG”: 0.109. Consider “GGUCACGUCUCAAUCAACUCUAUUUCAGGAGUUUUCUCCUGUUAACUCAACAGCUCGCAGUCAAG”, for which the binding signal (log2 fold change) is 0.0827. As for “GGUCACGUCUCAAUCAACUCUUAAGAGGGGGGGAAAACCCCUUUACCCUCAUUAUCAACAGCUCGCAGUCAAG”, the figure is -0.0393; as for “GGUCACGUCUCAAUCAACUCAUCGCCCAGGGAAAGCCCUGGUAUUUUCAACAGCUCGCAGUCAAG”, -0.382. As to “GGUCACGUCUCAAUCAACUCAUCCCCCAGGGAAACCCCUGGUUUUCUCAACAGCUCGCAGUCAAG”, the binding signal (log2 fold change) is -0.0683.

With “GGUCACGUCUCAAUCAACUCAUUCUCCAGGGAAAUCCCUGGUUUACUCAACAGCUCGCAGUCAAG”, the binding signal (log2 fold change) is 0.22.

Take “GGUCACGUCUCAAUCAACUCCUAAGAGGGGGGGAAAACCCCUUUGCCCUCACACUCAACAGCUCGCAGUCAAG”: the binding signal (log2 fold change) is -0.82.

Consider “GGUCACGUCUCAAUCAACUCUUUCCCCAGGGAAAUCCCUGGCAAAUUCAACAGCUCGCAGUCAAG”, for which the binding signal (log2 fold change) amounted to 0.229. For “GGUCACGUCUCAAUCAACUCAUUAGAGGGGGGGAAAACCCCUUUGCCCUCAUCAUCAACAGCUCGCAGUCAAG”, the binding signal (log2 fold change) turned out to be 0.191. As for “GGUCACGUCUCAAUCAACUCUAUCUCAGGAGUUUUCUCCUGUAAUUUCAACAGCUCGCAGUCAAG”, the figure is -0.193. In the case of “GGUCACGUCUCAAUCAACUCAAUCUCAGGAGUUUGCUCCUGCAUAUUCAACAGCUCGCAGUCAAG”, the binding signal (log2 fold change) was -0.0571. Turning to “GGUCACGUCUCAAUCAACUCAUUCCCAGGAGUUUACUCCUGCUUUUUCAACAGCUCGCAGUCAAG”, the binding signal (log2 fold change) came to 0.0933. The same measure for “GGUCACGUCUCAAUCAACUCAAUUUCAGGAGUUUUCUCCUGCUUAGUCAACAGCUCGCAGUCAAG”: 0.138.
